The other results are listed elsewhere or left out. The list includes weakly bound sequences.

In this assay the target is T1, MBP-FoxP3dN (UniProt Q99JB6).
T1 sequence: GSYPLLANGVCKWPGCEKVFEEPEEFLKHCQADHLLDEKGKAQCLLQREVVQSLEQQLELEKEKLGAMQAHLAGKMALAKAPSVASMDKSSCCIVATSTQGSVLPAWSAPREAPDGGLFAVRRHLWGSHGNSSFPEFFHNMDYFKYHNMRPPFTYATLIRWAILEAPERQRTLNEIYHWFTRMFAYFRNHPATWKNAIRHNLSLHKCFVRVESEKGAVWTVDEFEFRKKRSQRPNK
Briefly: PD-seq (MBP pull-down with sequencing). The settings on record: 20 mM Tris-HCl pH 7.5, 100 mM NaCl, 1.5 mM MgCl2, 0.4 uM protein, 0.1 uM dsDNA library, 30 min, room temperature, amylose pull-down; high values mean tight binding; double strand, one strand shown.
On to “GATGATTGTTCTCCCAGCTGATGAATTGCACGACTCGAGTAAACAAATTTTCCTAATCTTTCTGTTCAAGCGCCATCTAC”, for which the binding signal (RPM ratio (pull-down/input)) was 0.622.

Turning to “GATGATTGTTCTCCCAGCTGATGAATTTAATCGCTCGAGTAAACAAATTTTCCTAATCTTTCTGTTCAAGCGCCATCTAC”, the binding signal (RPM ratio (pull-down/input)) was 0.362.

With “GATGATTGTTCTCCCAGCTGATGAATTATTCTCATCGAGTAAACAAATTTTCCTAATCTTTCTGTTCAAGCGCCATCTAC”, the binding signal (RPM ratio (pull-down/input)) was determined as 0.398.

For the sequence “GATGATTGTTCTCCCAGCTGATGAATTGTTAATGTCGAGTAAACAAATTTTCCTAATCTTTCTGTTCAAGCGCCATCTAC”, the binding signal (RPM ratio (pull-down/input)) was determined as 0.803.

As for “GATGATTGTTCTCCCAGCTGATGAATTTTACGGCTCGAGTAAACAAATTTTCCTAATCTTTCTGTTCAAGCGCCATCTAC”, the binding signal (RPM ratio (pull-down/input)) stood at 0.239.

Consider “GATGATTGTTCTCCCAGCTGATGAATTTTCCGTCTCGAGTAAACAAATTTTCCTAATCTTTCTGTTCAAGCGCCATCTAC”, for which the binding signal (RPM ratio (pull-down/input)) was determined as 0.292.

Consider “GATGATTGTTCTCCCAGCTGATGAATTACGGTACTCGAGTAAACAAATTTTCCTAATCTTTCTGTTCAAGCGCCATCTAC”, for which the binding signal (RPM ratio (pull-down/input)) was determined as 0.633.

Turning to “GATGATTGTTCTCCCAGCTGATGAATTCTGGGGATCGAGTAAACAAATTTTCCTAATCTTTCTGTTCAAGCGCCATCTAC”, the binding signal (RPM ratio (pull-down/input)) is 0.291.

Take “GATGATTGTTCTCCCAGCTGATGAATTCTGAGTTTCGAGTAAACAAATTTTCCTAATCTTTCTGTTCAAGCGCCATCTAC”: the binding signal (RPM ratio (pull-down/input)) worked out at 1.48.

Take “GATGATTGTTCTCCCAGCTGATGAATTTTTTTGCTCGAGTAAACAAATTTTCCTAATCTTTCTGTTCAAGCGCCATCTAC”: the binding signal (RPM ratio (pull-down/input)) worked out at 0.366.

With “GATGATTGTTCTCCCAGCTGATGAATTCAAGACATCGAGTAAACAAATTTTCCTAATCTTTCTGTTCAAGCGCCATCTAC”, the binding signal (RPM ratio (pull-down/input)) amounted to 0.33.

As to “GATGATTGTTCTCCCAGCTGATGAATTCGTGCAATCGAGTAAACAAATTTTCCTAATCTTTCTGTTCAAGCGCCATCTAC”, the binding signal (RPM ratio (pull-down/input)) came to 3.15.

Regarding “GATGATTGTTCTCCCAGCTGATGAATTCCCATCTTCGAGTAAACAAATTTTCCTAATCTTTCTGTTCAAGCGCCATCTAC”, the binding signal (RPM ratio (pull-down/input)) worked out at 0.307.

Take “GATGATTGTTCTCCCAGCTGATGAATTACAATGTTCGAGTAAACAAATTTTCCTAATCTTTCTGTTCAAGCGCCATCTAC”: the binding signal (RPM ratio (pull-down/input)) is 0.908.

Take “GATGATTGTTCTCCCAGCTGATGAATTCAGGCTCTCGAGTAAACAAATTTTCCTAATCTTTCTGTTCAAGCGCCATCTAC”: the binding signal (RPM ratio (pull-down/input)) amounted to 0.404.

In the case of “GATGATTGTTCTCCCAGCTGATGAATTGAAGTGGTCGAGTAAACAAATTTTCCTAATCTTTCTGTTCAAGCGCCATCTAC”, the binding signal (RPM ratio (pull-down/input)) amounted to 0.353.

Consider “GATGATTGTTCTCCCAGCTGATGAATTTGCAGTATCGAGTAAACAAATTTTCCTAATCTTTCTGTTCAAGCGCCATCTAC”, for which the binding signal (RPM ratio (pull-down/input)) turned out to be 1.49.

Regarding “GATGATTGTTCTCCCAGCTGATGAATTGCTTCTTTCGAGTAAACAAATTTTCCTAATCTTTCTGTTCAAGCGCCATCTAC”, the binding signal (RPM ratio (pull-down/input)) worked out at 0.656.

Consider “GATGATTGTTCTCCCAGCTGATGAATTTTGAGTGTCGAGTAAACAAATTTTCCTAATCTTTCTGTTCAAGCGCCATCTAC”, for which the binding signal (RPM ratio (pull-down/input)) worked out at 1.81.

As to “GATGATTGTTCTCCCAGCTGATGAATTCGCGTTTTCGAGTAAACAAATTTTCCTAATCTTTCTGTTCAAGCGCCATCTAC”, the binding signal (RPM ratio (pull-down/input)) was 1.2.

Consider “GATGATTGTTCTCCCAGCTGATGAATTGATCCTCTCGAGTAAACAAATTTTCCTAATCTTTCTGTTCAAGCGCCATCTAC”, for which the binding signal (RPM ratio (pull-down/input)) was found to be 0.287.

In the case of “GATGATTGTTCTCCCAGCTGATGAATTTGATAGTTCGAGTAAACAAATTTTCCTAATCTTTCTGTTCAAGCGCCATCTAC”, the binding signal (RPM ratio (pull-down/input)) is 3.99.

As for “GATGATTGTTCTCCCAGCTGATGAATTCGCCCCTTCGAGTAAACAAATTTTCCTAATCTTTCTGTTCAAGCGCCATCTAC”, the binding signal (RPM ratio (pull-down/input)) was 0.389.

As to “GATGATTGTTCTCCCAGCTGATGAATTCGTAGTCTCGAGTAAACAAATTTTCCTAATCTTTCTGTTCAAGCGCCATCTAC”, the binding signal (RPM ratio (pull-down/input)) turned out to be 1.07.

“GATGATTGTTCTCCCAGCTGATGAATTTTAGCGATCGAGTAAACAAATTTTCCTAATCTTTCTGTTCAAGCGCCATCTAC”: the binding signal (RPM ratio (pull-down/input)) came to 0.522.

As to “GATGATTGTTCTCCCAGCTGATGAATTGGAAGACTCGAGTAAACAAATTTTCCTAATCTTTCTGTTCAAGCGCCATCTAC”, the binding signal (RPM ratio (pull-down/input)) is 0.219.

For “GATGATTGTTCTCCCAGCTGATGAATTGAGGTACTCGAGTAAACAAATTTTCCTAATCTTTCTGTTCAAGCGCCATCTAC”, the binding signal (RPM ratio (pull-down/input)) was 0.549.

Turning to “GATGATTGTTCTCCCAGCTGATGAATTACCGCCCTCGAGTAAACAAATTTTCCTAATCTTTCTGTTCAAGCGCCATCTAC”, the binding signal (RPM ratio (pull-down/input)) came out at 0.552.

Take “GATGATTGTTCTCCCAGCTGATGAATTGTGATTTTCGAGTAAACAAATTTTCCTAATCTTTCTGTTCAAGCGCCATCTAC”: the binding signal (RPM ratio (pull-down/input)) came out at 2.75.

On to “GATGATTGTTCTCCCAGCTGATGAATTTAGGCGGTCGAGTAAACAAATTTTCCTAATCTTTCTGTTCAAGCGCCATCTAC”, for which the binding signal (RPM ratio (pull-down/input)) is 0.538.

As to “GATGATTGTTCTCCCAGCTGATGAATTGACAGACTCGAGTAAACAAATTTTCCTAATCTTTCTGTTCAAGCGCCATCTAC”, the binding signal (RPM ratio (pull-down/input)) is 0.347.

With “GATGATTGTTCTCCCAGCTGATGAATTCGGTTGCTCGAGTAAACAAATTTTCCTAATCTTTCTGTTCAAGCGCCATCTAC”, the binding signal (RPM ratio (pull-down/input)) was determined as 1.66.

For the origin of these results see paper PMC12820563.
